Among all 350,000 compounds or so, about 260 (0.074%) were called active. The inconclusive results got no clear call from the source; some entries with a clear call stand among them for comparison. Calls come from the whole dose curve; as a rule, active = well fitted inhibition curve with a large enough effect; inconclusive = small, poorly fitted or top-dose-only effect; inactive = no such curve, though single readings can be large or run the other way. Where the call is inconclusive, the potency comes from a doubtful curve fit.
What follows are molecules tested against Ferritin light chain (Equus caballus) (UniProt P02791) (assay: qHTS Assay for Identification of Novel General Anesthetics). Settings: apoferritin/1-aminoanthracene competitive binding, fluorescence; activity change, negative = displacement: at 77.5 µM (top of the series).
Summary of the method: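 Apoferritin-based anesthetic binding model; compound displacement of fluorescent 1-AMA measured as endpoint fluorescence after 10 minutes at room temperature, scaled to free-ligand and complex controls.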
% is set by controls: 0 for no effect and ±100 for the full control effect; potency is the fitted concentration of half-maximal effect; tags give direction and shape of the fitted curve.
Note: nearly all actives have a fitted effect of over 20% in size.

Sequence of UniProt P02791 (P02791 whole entry, looked up): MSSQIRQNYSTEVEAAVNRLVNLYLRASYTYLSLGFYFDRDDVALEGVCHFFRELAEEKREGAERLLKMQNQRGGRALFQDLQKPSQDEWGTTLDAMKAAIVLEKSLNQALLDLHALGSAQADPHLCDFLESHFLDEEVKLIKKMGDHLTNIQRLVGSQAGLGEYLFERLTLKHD

Row | Compound | activity change, negative = displacement | Potency
1 | O=C(O)C1NCCN(C(=O)c2ccc3c(ccc4ccccc43)c2)C1C(=O)O (stereo not drawn) | inactive: -7% | –
2 | COc1cccc(Sc2ccccc2CN(C)C)c1 | – | inconclusive: 39.8 µM [inhibitor, single point]
3 | C#CCCCO/N=C1/C[C@@H](O)[C@@H](O)[C@@H]2[C@H]3C(=O)N(c4ccc(F)cc4F)C(=O)[C@@H]3CC[C@@H]12 | inactive: 3.94% [at 15.3 µM] | –
4 | CCOC(=O)C1(CC2CCCCO2)CCN(Cc2cc3ccccc3[nH]2)CC1 (stereo not drawn) | – | inconclusive: 11.2 µM [inhibitor, partial curve]
5 | Cc1ccc(C(=O)CN2CCC(NC(=O)C3CCCCC3)CC2)cc1 | – | inconclusive: 20 µM [inhibitor, partial curve]
6 | O=C(c1cc(-c2ccc(F)cc2)on1)N1CCCc2ccccc21 | – | inconclusive: 31.6 µM [inhibitor, partial curve]
7 | Cc1ccc(NCc2nnc3n2CCCCC3)cc1Cl | – | inconclusive: 5.01 µM [inhibitor, full curve]
8 | CN1C(C(=O)Nc2ccc(F)cc2F)=CC(c2cccs2)=NS1(=O)=O | – | inconclusive: 39.8 µM [inhibitor, single point]
9 | CCCCSC1=C(C#N)C(c2ccccc2C)CC(=O)N1 (stereo not drawn) | inactive: -9.05% | –
10 | CCc1ccc(NC(=O)c2ccc(F)c(S(=O)(=O)NCC3COc4ccccc4O3)c2)cc1 (stereo not drawn) | – | inconclusive: 8.91 µM [inhibitor, full curve, poor fit]
11 | CC(C)c1ccc(NC(=O)c2cc([N+](=O)[O-])ccc2N2CCOCC2)cc1 | – | inconclusive: 31.6 µM [inhibitor, partial curve]
12 | Cc1nnc(SCc2ccccc2CSc2nnc(C)s2)s1 | – | inconclusive: 22.4 µM [inhibitor, partial curve]
13 | Cc1cccc(OCCOC(=O)C2CCN(S(=O)(=O)c3cccs3)CC2)c1 | – | inconclusive: 0.794 µM [inhibitor, full curve, poor fit]
14 | O=C(CSc1nnnn1-c1ccc(O)cc1)Nc1cccc(S(=O)(=O)N2CCCC2)c1 | – | inconclusive: 20 µM [inhibitor, partial curve]
15 | O=C(CN1N=C(c2ccc(Cl)cc2)CCC1=O)NCc1ccc(F)cc1 | – | inconclusive: 6.31 µM [inhibitor, partial curve]
16 | C/C(=N/NC(=O)CCC(=O)Nc1ccc(Br)cc1)c1ccc(Br)cc1 | inactive: -17.8% | –
17 | C=CCn1c(C2CC2)n[nH]c1=S | inactive: -15.3% | –
18 | COc1ccc(N(CC(=O)Nc2ccc3c(c2)OCCO3)S(=O)(=O)c2c(C)nn(C)c2C)cc1 | – | inconclusive: 39.8 µM [inhibitor, single point]

Reference: PubChem BioAssay AID485281 (National Center for Advancing Translational Sciences (NCATS), 2010)
